The values that follow come from patent US20180185510A1, “ANTIBODY DRUG CONJUGATES OF KINESIN SPINDEL PROTEIN (KSP) INHIBITORS WITH ANTI-B7H3-ANTIBODIES” (BAYER PHARMA AKTIENGESELLSCHAFT, priority 2015, published 2018).

A value given as a limit tells only on which side of the number the result lay.

The test system of the test is Raji: human Burkitt's lymphoma cells. The test is described as follows: CTG assay, cytotoxic effects of the anti-B7H3 ADCs, Raji. It is filed as cell-based. The note with it: growth inhibition vs day 0, 72 h incubation, B7H3-negative cells. As for the experimental part: The analysis of the cytotoxic effects of the anti-B7H3 ADCs was carried out with various cell lines:
The cells were cultivated by the standard method as stated by the American Tissue Culture Collection (ATCC) for the cell lines in question.
The cells were cultivated according to the standard method using the growth media listed under C-1. […] The cells were then incubated in an incubator at 37° C. and 5% carbon dioxide. In a parallel plate, the cell vitality was determined at the start of the drug treatment (day 0) using the Cell Titer Glow (CTG) Luminescent Cell Viability Assay (Promega #G7573 and #G7571). To this end, 100 μl of the substrate were added per cell batch, the plates were then covered with aluminium foil, shaken on the plate shaker at 180 rpm for 2 minutes, allowed to stand on the laboratory bench for 8 minutes and then measured using a luminometer (Victor X2, Perkin Elmer). The substrate detects the ATP content in the living cells, generating a luminescence signal the height of which is directly proportional to the vitality of the cells. […] From the measured data, the IC50 of the growth inhibition in comparison to day 0 was calculated using the DRC (dose response curve) analysis spreadsheets with a 4-parameter fit. […]

A word on the IC50: it is the concentration that inhibits the measured activity by half.

B1: 194L1 (conjugate)
heavy: QVKLQQSGAELVKPGASVKLSCKASGYTFTNYDINWVRQRPEQGLEWIGWIFPGDGSTQYNEKFKGKATLTTDTSSSTAYMQLSRLTSEDSAVYFCARQTTATWFAYWGQGTTVTVSS[omitted - human IgG1 constant region]
light: DIELTQSPTTLSVTPGDRVSLSCRASQSISDYLHWYQQKSHESPRLLIKYASQSISGIPSRFSGSGSGSDFTLSINSVEPEDVGVYYCQNGHSFPLTFGAGTKLELKRTVAAPSVFIFPPSDEQLKSGTASVVCLLNNFYPREAKVQWKVDNALQSGNSQESVTEQDSKDSTYSLSSTLTLSKADYEKHKVYACEVTHQGLSSPVTKSFNRGEC
In the case of B1, the half-maximal inhibitory concentration (IC50) is above 300 nM.

B2: Example 274L1 (conjugate)
heavy: QVKLQQSGAELVKPGASVKLSCKASGYTFTNYDINWVRQRPEQGLEWIGWIFPGDGSTQYNEKFKGKATLTTDTSSSTAYMQLSRLTSEDSAVYFCARQTTATWFAYWGQGTTVTVSS[omitted - human IgG1 constant region]
light: DIELTQSPTTLSVTPGDRVSLSCRASQSISDYLHWYQQKSHESPRLLIKYASQSISGIPSRFSGSGSGSDFTLSINSVEPEDVGVYYCQNGHSFPLTFGAGTKLELKRTVAAPSVFIFPPSDEQLKSGTASVVCLLNNFYPREAKVQWKVDNALQSGNSQESVTEQDSKDSTYSLSSTLTLSKADYEKHKVYACEVTHQGLSSPVTKSFNRGEC
B2 had an IC50 of 115 nM.
